Data as given in PubChem BioAssay AID1508642 (National Center for Advancing Translational Sciences (NCATS), 2021).
Out of some 43,000 compounds screened, about 200 (0.47%) were called active. About 12% were inconclusive and are not listed. Calls come from the whole dose curve; as a rule, active = well fitted cell-killing curve with a large enough effect; inconclusive = small, poorly fitted or top-dose-only effect, or effect the other way; inactive = flat fitted curve, though single readings scatter. The list shows a part of the results.
% is set by controls: 0 for no effect and ±100 for the full control effect.

Assay: Cell viability qHTS assay in S16 Pmp22-F2sN cells; note: nearly all actives have a fitted effect of over 65% in size
Conditions: S16 Pmp22-F2sN Schwann cells (luciferase reporters placed in the Pmp22 gene) viability, CellTiter-Glo, 24 h; series mostly up to 57.5 µM; activity change, negative = cytotoxicity: at the top concentration
Method in brief: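 Luminescence from CellTiter-Glo, read by CCD camera after a 15 min room-temperature incubation, served as the viability signal. Reporter Schwann cells (S16 Pmp22-F2sN) had been treated with pin-transferred compounds for 24 h at 37C.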
In the case of `Cc1cc(NC(=O)c2cccs2)cc(-c2nc3cc(Cl)ccc3o2)c1O`, the “activity change, negative = cytotoxicity” value is reported as inactive: 16.3%.
For `Cc1ccc(C)c(NC(=O)c2ccc3nc(CCc4ccccc4)oc3c2)c1`, the “activity change, negative = cytotoxicity” value was inactive: 11.1%.
In the case of `O=C(CSc1n[nH]c(-c2ccccc2Cl)n1)N1CCN(c2ccccc2)CC1`, the “activity change, negative = cytotoxicity” value is reported as inactive: 1.27%.
With `CCC(=O)NCc1cc(-c2nn(C)c(=O)c3ccccc23)ccc1OC` the “activity change, negative = cytotoxicity” value was inactive: 0.727%.
For `CC1CCCCN1C(=O)Cn1c(SCC(=O)N(C)c2ccccc2)nc2ccccc21` (stereo unspecified), the “activity change, negative = cytotoxicity” value was inactive: 9.91%.
In the case of `CCn1cc(CNC(=O)c2cc(-c3ccc(C)c(C)c3)nc3ccccc23)c(C)n1`, the “activity change, negative = cytotoxicity” value is reported as inactive: 4.47%.
In the case of `CCOc1ccccc1CNS(=O)(=O)c1ccc(-c2coc(C)n2)cc1`, the “activity change, negative = cytotoxicity” value is reported as inactive: -4.81%.
With `Cc1cccc(C(c2sc3nc(-c4ccco4)nn3c2O)N2CCN(c3ccccc3)CC2)c1` (stereo unspecified) the “activity change, negative = cytotoxicity” value was inactive: 7.94%.
In the case of `COC(=O)c1ccccc1NC(=O)c1cc2nc(-c3ccc(OC)cc3)cc(C(F)(F)F)n2n1`, the “activity change, negative = cytotoxicity” value is reported as inactive: 6.52%.
In the case of `Cc1ccc(NC(=O)c2ccc(NC(=O)N3CCSc4nc(C)cc(C)c43)cc2)c(Cl)c1`, the “activity change, negative = cytotoxicity” value is reported as inactive: 6.08%.
In the case of `O=C(Cn1nc2c(cc1=O)CCCC2)Nc1ccccc1C(F)(F)F`, the “activity change, negative = cytotoxicity” value is reported as inactive: 15.3%.
In the case of `Cc1ccc(NC(=O)c2ccc(=O)n(CC(=O)Nc3cccc(C)c3)n2)cc1`, the “activity change, negative = cytotoxicity” value is reported as inactive: 6.78%.
In the case of `Cc1cccc(NC(=O)CCc2c(C)nc3nc(CNC(=O)c4cccc(F)c4)nn3c2C)c1`, the “activity change, negative = cytotoxicity” value is reported as inactive: -1.38%.
For `COc1ccc(-c2noc(CSc3nnc(-c4ccncc4)n3-c3ccc(C)cc3)n2)cc1OC`, the “activity change, negative = cytotoxicity” value was inactive: -17.5%.
For `O=C(Cn1c(=O)n(Cc2ccc3c(c2)OCO3)c(=O)c2oc3ccccc3c21)Nc1ccc(F)cc1`, the “activity change, negative = cytotoxicity” value was inactive: 9.08%.
In the case of `CCOc1ccccc1NC(=O)c1c(NC(=O)c2ccccc2)sc2c1CCCC2`, the “activity change, negative = cytotoxicity” value is reported as inactive: 18.2%.
With `O=C(Cn1cc(SCc2cccc(Cl)c2)c2ccccc21)N1CCCCCC1` the “activity change, negative = cytotoxicity” value was inactive: -15.7%.
In the case of `CCc1ccc(Oc2c(C(F)(F)F)oc3c(CN4CCN(C)CC4)c(O)ccc3c2=O)cc1`, the “activity change, negative = cytotoxicity” value is reported as inactive: -2.82%.
With `COc1cccc(C(=O)NCc2nc(-c3ccccc3)no2)c1OC` the “activity change, negative = cytotoxicity” value was inactive: -3.41%.
With `CC(C)(C)c1ccc(-c2nc3cc(NC(=O)c4cccc(Br)c4)ccc3o2)cc1` the “activity change, negative = cytotoxicity” value was inactive: 16.3%.
In the case of `COc1ccc(-n2ccn(CC(=O)NCCc3ccccc3)c(=O)c2=O)cc1OC`, the “activity change, negative = cytotoxicity” value is reported as inactive: -5.08%.
For `O=C(NCCc1csc2nc(-c3ccc(F)cc3)nn12)c1cccc(C(F)(F)F)c1`, the “activity change, negative = cytotoxicity” value was inactive: -2.47%.
For `COc1cccc(CNC(=O)Cn2ncc3c4ccccc4n(Cc4ccccc4)c3c2=O)c1`, the “activity change, negative = cytotoxicity” value was inactive: 0.345%.
In the case of `COc1ccccc1CN(Cc1ccco1)c1cnc(S(C)(=O)=O)nc1C(=O)Nc1cc(C)ccc1C`, the “activity change, negative = cytotoxicity” value is reported as inactive: 3.15%.
With `COc1ccc(C(c2c(O)cc(C)n(Cc3ccco3)c2=O)N2CCCCC2)cc1OC` (stereo unspecified) the “activity change, negative = cytotoxicity” value was inactive: -0.472%.
For `CC1CCN(C(=O)CSc2nc(-c3ccccc3)no2)CC1`, the “activity change, negative = cytotoxicity” value was inactive: -1.11%.
In the case of `Cc1c(NS(=O)(=O)c2ccccc2)cc(C(C)C)c(O)c1S(=O)(=O)c1ccc(Cl)cc1`, the “activity change, negative = cytotoxicity” value is reported as inactive: -12.2%.
With `COc1cc(C(=O)N2CCC(c3nc4ccccc4o3)CC2)cc(OC)c1OC` the “activity change, negative = cytotoxicity” value was inactive: -2.63%.
In the case of `CCOc1cccc(CC(=O)N2CCc3c([nH]c4ccccc34)C2c2ccc(Cl)cc2)c1OCC` (stereo unspecified), the “activity change, negative = cytotoxicity” value is reported as inactive: -9.94%.
For `COc1ccc(S(=O)(=O)N2CCC(Oc3ccc(-n4cnnn4)cc3)CC2)cc1OC`, the “activity change, negative = cytotoxicity” value was inactive: -7.69%.
With `Oc1c(C(c2ccccc2Cl)N2CCCC2)sc2nc(-c3ccco3)nn12` (stereo unspecified) the “activity change, negative = cytotoxicity” value was inactive: 0.418%.
With `CCOc1ccc(N(CC(=O)NCc2ccccc2Cl)S(=O)(=O)c2c(C)[nH]c(=O)[nH]c2=O)cc1` the “activity change, negative = cytotoxicity” value was inactive: -1.71%.
With `CC(=O)Nc1ccc(NC(=O)CSc2nc3ccccc3nc2N2CCOCC2)cc1` the “activity change, negative = cytotoxicity” value was inactive: -18.2%.
For `CCc1ccc(NC(=O)CN(c2ccc(OC)cc2)S(=O)(=O)c2c(C)[nH]c(=O)[nH]c2=O)cc1`, the “activity change, negative = cytotoxicity” value was inactive: 5.27%.
For `COc1ccc(-n2c(CC3C(=O)N(C)c4ccc(C)cc43)nc3ccccc3c2=O)cc1` (stereo unspecified), the “activity change, negative = cytotoxicity” value was inactive: 1.78%.
With `Cc1ccccc1C(=O)Nc1nnc(S(=O)(=O)N2c3ccccc3CC2C)s1` (stereo unspecified) the “activity change, negative = cytotoxicity” value was inactive: -6.24%.
For `O=C(NCc1ccco1)c1ccc2c(c1)N(Cc1cccc(Cl)c1)C(=O)c1ccccc1S2(=O)=O`, the “activity change, negative = cytotoxicity” value was inactive: -13.4%.
In the case of `COc1ccc(-c2noc(CNC(=O)c3ccco3)n2)cc1`, the “activity change, negative = cytotoxicity” value is reported as inactive: 15.9%.
In the case of `Cc1ccc(CNC(=O)CSc2cc(C)[nH]c(=O)n2)cc1`, the “activity change, negative = cytotoxicity” value is reported as inactive: 5.29%.
In the case of `COc1ccc(CCNc2ncnc3c2cnn3-c2ccc(C)cc2)cc1`, the “activity change, negative = cytotoxicity” value is reported as inactive: 22%.
In the case of `Fc1ccc(CN2CCc3nc(Nc4ccccc4)ncc3C2)cc1F`, the “activity change, negative = cytotoxicity” value is reported as inactive: -2.6%.
In the case of `COc1ccc(CCNC(=O)c2ccc3c(c2)N(Cc2ccccc2F)C(=O)c2ccccc2S3(=O)=O)cc1OC`, the “activity change, negative = cytotoxicity” value is reported as inactive: -5.58%.
With `Cc1ccc(CN(Cc2ccco2)C(=O)COc2cc(C)c(Cl)c(C)c2)cc1` the “activity change, negative = cytotoxicity” value was inactive: -25.7%.
With `O=c1c2c(-c3ccccc3)ccnc2[nH]n1-c1ccccc1` the “activity change, negative = cytotoxicity” value was inactive: 4.57%.
For `CCCC1=Nc2cc(C(=O)NC(C)c3ccccc3)ccc2Sc2ccc(C)cc21` (stereo unspecified), the “activity change, negative = cytotoxicity” value was inactive: -18%.
With `Cc1nn(C(=O)c2c(F)cccc2F)c(C)c1S(=O)(=O)N1CCOCC1` the “activity change, negative = cytotoxicity” value was inactive: 0.302%.
With `O=C(CCN1N=C(c2ccccc2)CCC1=O)NCCc1ccc(Cl)cc1` the “activity change, negative = cytotoxicity” value was inactive: 9.7%.
For `Cc1cc(C(F)F)n2nc(C(=O)Nc3c(C)cccc3C)nc2n1`, the “activity change, negative = cytotoxicity” value was inactive: 6.39%.
In the case of `Cc1cccc(N2CCN(C(=O)c3cc4c(=O)oc5ccccc5c4s3)CC2)c1C`, the “activity change, negative = cytotoxicity” value is reported as inactive: 0.614%.
With `CCCCn1c(SCC(=O)NCCCOC)nc2c(sc3ccccc32)c1=O` the “activity change, negative = cytotoxicity” value was inactive: -2.01%.
For `CCn1c(=O)c2sccc2n2c(CCCC(=O)N3CCN(c4cc(Cl)ccc4C)CC3)nnc12`, the “activity change, negative = cytotoxicity” value was inactive: 13.2%.
For `Cc1cc(C)c(NC(=O)CSc2nc3nc(C)cc(C)n3n2)c(C)c1`, the “activity change, negative = cytotoxicity” value was inactive: -1.21%.
With `Cc1cc(C)c(NC(=O)CSc2ccc(-c3sc(-c4ccccc4)nc3C)nn2)c(C)c1` the “activity change, negative = cytotoxicity” value was inactive: 14%.
With `COc1ccccc1N1CCN(c2ncccc2-c2nc(-c3ccc(Cl)cc3)no2)CC1` the “activity change, negative = cytotoxicity” value was inactive: 16.2%.
With `CCCCOc1cccc(C2c3c(oc4ccccc4c3=O)C(=O)N2c2ccccn2)c1` (stereo unspecified) the “activity change, negative = cytotoxicity” value was inactive: -15.6%.
With `CCc1ccc(C(=O)c2cn(CC(=O)Nc3ccc(OC)c(OC)c3)c3ccc(C)cc3c2=O)cc1` the “activity change, negative = cytotoxicity” value was inactive: 16.9%.
With `O=C(CSc1nc(-c2ccc(F)cc2)[nH]c1-c1ccccc1)NCC1CCCO1` (stereo unspecified) the “activity change, negative = cytotoxicity” value was inactive: -15.2%.
In the case of `CCOC(=O)c1c(-c2ccc(C)cc2)csc1NC(=O)c1nc(SCC)ncc1Cl`, the “activity change, negative = cytotoxicity” value is reported as inactive: 1.41%.
In the case of `Cc1ccc(-n2c(=O)c3ccc(C(=O)NCc4ccccc4Cl)cc3n(Cc3ccccc3F)c2=O)cc1`, the “activity change, negative = cytotoxicity” value is reported as inactive: -4.19%.
With `COc1cccc(NS(=O)(=O)c2ccc3[nH]cc(C(=O)N4CCCCCC4)c(=O)c3c2)c1` the “activity change, negative = cytotoxicity” value was inactive: 2.4%.
With `O=C(NC1CC(=O)N(c2cccc(F)c2)C1)C1CC1` (stereo unspecified) the “activity change, negative = cytotoxicity” value was inactive: 11.2%.
